Among the data in the RNAGym collection of RNA variant scans (doi:10.1101/gad.245936.114) are nonsense suppression values, retold here.

B1: tRNA (parent)
chain: CUCUCGGUAGCCAAGUUGGUUUAAGGCGCAAGACUUUAAUUUAUCACUACGAAAUCUUGAGAUCGGGCGUUCGACUCGCCCCCGGGAGAUUUUUUCCUCGAGCAA

Variants at the floor of the assay are shown more often than the library holds them.

In the series the parent is B1. Kind of series: nonsense suppression (GFP-seq) (ratio to wild type); higher = more function; SUP4oc tRNA, yeast GFP reporter sort-seq. The essentials: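 Yeast were grown in raffinose/galactose medium with 80 mg/L adenine, each strain bearing a genome-integrated ochre-suppressor tRNA variant from a ~3% random-mutation library, a galactose-driven GFP ochre reporter, and RFP. After sorting into GFP/RFP bins, every bin was sequenced on an Illumina platform at phred ≥30. The GFPSEQ value, a measure of nonsense suppression, is the weighted bin median GFP/RFP relative to the unmutated parent tRNA, using each variant's estimated cell share per bin as the weight. Only variants with ≥100 reads and ≥30 cells were included.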
In the case of A9U G15U G19U C82G, the nonsense suppression is no more than 0.026.
Turning to C5G U55C G69C G86U, the nonsense suppression was no more than 0.026.
Regarding G10U C11G, the nonsense suppression is no more than 0.026.
For U2G U4G C27U U76G the value was no more than 0.026; for U16G C64A, no more than 0.026.
Turning to U55G A89U, the nonsense suppression was no more than 0.026.
For U2G C5A A60C the value was no more than 0.026; for G25C G32U A54G G59A U76G, no more than 0.026.
The figure for C5A U71A is no more than 0.026.
Turning to C3G U63G C77A, the nonsense suppression is no more than 0.026.
For U20A G59C the value was no more than 0.026.
The figure for C11G G66A is no more than 0.026; for U17C A30G G59C U63G U70A G73C it is no more than 0.026.
With G19A C79A, the nonsense suppression is no more than 0.026.
For the variant C1U U58A, the nonsense suppression is no more than 0.026.
For the variant U8C U21G C29U G73C, the nonsense suppression was no more than 0.026.
For C1U G15U A31U the value was no more than 0.026; for C27A U35G C72G, no more than 0.026; for U58A C68G A74C, no more than 0.026.
As for G25A C75U, the nonsense suppression is no more than 0.026.
In the case of A30G G61C, the nonsense suppression is 0.251.
As to U20A C29A A87U, the nonsense suppression was no more than 0.026.
For the variant A62C C77A C80U, the nonsense suppression was no more than 0.026.
For G15U U55A U71G the value was no more than 0.026; for C1A A9C C64U C77U, no more than 0.026; for C27A U57A C77G, no more than 0.026.
In the case of G19C G28U, the nonsense suppression is no more than 0.026.
The figure for C11G G26A A33U U63A G66C G67C C80U is no more than 0.026; for C11U G61A G69U it is no more than 0.026; for U2A A60G it is 0.0755.
As to U4C G26U C34G U35A C82A, the nonsense suppression is no more than 0.026.
For A9G A31U U55C U57G the value was no more than 0.026.
Turning to C11A G26C G32U, the nonsense suppression is no more than 0.026.
With U21A A24U U55C U58G A89G, the nonsense suppression was no more than 0.026.
For U22C C77A, the nonsense suppression is no more than 0.026.
Take C29G U70C: the nonsense suppression is no more than 0.026.
For the variant G15U U17A G67U, the nonsense suppression was no more than 0.026.
The figure for G6A A14G A62U is no more than 0.026; for C12U C64G G78C it is no more than 0.026; for C5G G78U C82A it is no more than 0.026.
Turning to U4C A74G C80A, the nonsense suppression was no more than 0.026.
For the variant C5U A54G, the nonsense suppression is no more than 0.026.
The figure for U17G A54G U55G is no more than 0.026; for G26U G67A it is no more than 0.026; for U2A U8G C29A it is no more than 0.026.
Regarding G61C C80U, the nonsense suppression was found to be 0.731.
For C1U U55A A62U G73A the value was no more than 0.026; for U2A A13C G65A, no more than 0.026.
On to C34U U63C, for which the nonsense suppression is no more than 0.026.
The figure for A33C U35C C64G is no more than 0.026.
The figure for G15C U21C G65A A89G is no more than 0.026; for C1U A24U G84A it is no more than 0.026.
In the case of G10A U35A A54C U76G, the nonsense suppression is no more than 0.026.
G32U U70G U71A G84A: the nonsense suppression is no more than 0.026.
The figure for U22G G59C is no more than 0.026.
The figure for U22G C29U U57C is no more than 0.026; for A13U U16C G67U G69A G78A it is no more than 0.026.
Consider U20G U63A, for which the nonsense suppression was determined as 1.06.
Consider G6U A60U, for which the nonsense suppression was no more than 0.026.
Take C1A U55C G85U G88U: the nonsense suppression was no more than 0.026.
For G25U U58G A74C, the nonsense suppression is no more than 0.026.
The figure for U4A U57C A62C A74G is no more than 0.026.
In the case of C5A G78A, the nonsense suppression worked out at 0.0335.
The figure for U20G G59U is no more than 0.026; for U8G C81A it is no more than 0.026; for G10A U58C G88U it is no more than 0.026.
The figure for A13C U21C is 1.17; for A62G U63C it is no more than 0.026; for C3U U71A G86C it is no more than 0.026.
Take C5G G19C A87U: the nonsense suppression is no more than 0.026.
The figure for C1A U2A is no more than 0.026; for C34U A54C C56G G73A G88C it is no more than 0.026.
In the case of A30G G66U, the nonsense suppression is no more than 0.026.
The figure for G7U C12G G25U G32C G69U is no more than 0.026.
As to C11G U20C, the nonsense suppression is no more than 0.026.
For G7A G15U C34G U70G C77G the value was no more than 0.026; for U21G G32C, no more than 0.026.
The figure for C34G G67A G88U is no more than 0.026; for U8C C34U U57A G66U G73C it is no more than 0.026.
As for U4A A54U, the nonsense suppression was 0.191.
The figure for G61C A74U C83G is no more than 0.026; for A14C G15C U16G U22G C83A it is no more than 0.026.
The figure for C56G C79U is no more than 0.026.
For A13U C34A the value was no more than 0.026.
In the case of U4C C27U G67A U71G, the nonsense suppression is no more than 0.026.
The figure for U21G A74G G85U is no more than 0.026; for U2C U4G it is 0.0326; for A74C C81G it is no more than 0.026.
Consider A14C A87C, for which the nonsense suppression is no more than 0.026.
In the case of U20G A30G G65C U71C U76G A89C, the nonsense suppression was no more than 0.026.
As to U55C A60G G61C, the nonsense suppression is no more than 0.026.
For U71A G73C the value was no more than 0.026.
Consider C3A C11A, for which the nonsense suppression was no more than 0.026.
The figure for C11A A31U C64G is no more than 0.026.
For C1U the value was no more than 0.026.
As for A24C C29G U76A, the nonsense suppression was no more than 0.026.
In the case of A14U A33G, the nonsense suppression is no more than 0.026.
On to A14G A23C G88U, for which the nonsense suppression was no more than 0.026.
The figure for U21C G73U is no more than 0.026; for A13U A54U it is 0.728.
The figure for C5A G25U is no more than 0.026; for G59A G61A C81U it is no more than 0.026.
For U8G C64U the value was no more than 0.026; for C5A G7U U20G A74U, no more than 0.026.
In the case of A23G G28A C64A, the nonsense suppression is no more than 0.026.
For A9C G32U U58C the value was no more than 0.026; for U57A U71A, no more than 0.026.
The figure for G10U A60C A87U is no more than 0.026.
For the variant U16G U22G A74C, the nonsense suppression is no more than 0.026.
Regarding U21C U35C, the nonsense suppression is no more than 0.026.
In the case of C3A C27G U63G G86A, the nonsense suppression was no more than 0.026.
For U20A U63G the value was 0.106; for U2G C3U C27G G66A U70C, no more than 0.026.
The figure for C5G G19C A89U is no more than 0.026; for U16G G59C C68A it is no more than 0.026; for U8A it is no more than 0.026.
The figure for U16G U17A U70G is no more than 0.026; for C1U A23G C29U C64G it is no more than 0.026; for U76A C79A it is no more than 0.026.
Turning to G28A C34G C68U A74U, the nonsense suppression was no more than 0.026.
For C12A A13G U17A C64U the value was no more than 0.026; for A14U U16A C80G, no more than 0.026; for C1A G6U G7A A14G A62C G69U G85C, no more than 0.026.
For A9U C12A G73A the value was no more than 0.026; for C27A C34U, no more than 0.026; for C5A G28U A62C A89C, no more than 0.026.
The figure for G32U C34G is no more than 0.026; for C3A U21A C29G C68A G78C it is no more than 0.026.
In the case of C27G A33U C34G C83G G85A, the nonsense suppression is no more than 0.026.
On to G10C U55C G67U, for which the nonsense suppression was no more than 0.026.
Take U55G C83G G88A: the nonsense suppression was no more than 0.026.
As to G25C G86A G88A, the nonsense suppression is no more than 0.026.
As for A23C U71A, the nonsense suppression was no more than 0.026.
The figure for G25U A30G G59U is no more than 0.026.
The figure for U4G A14C C29U U57C A60U is no more than 0.026; for U58C G85A it is no more than 0.026; for C34U U58A C64G it is no more than 0.026.
The figure for U76A G78C is no more than 0.026; for C5U C12U U21C it is no more than 0.026; for G69U G78U C83A G86U it is no more than 0.026.
For the variant U35G C72A A74U G84A, the nonsense suppression was no more than 0.026.
For U2C G26U U57C the value was no more than 0.026; for U35C G67A, no more than 0.026; for G59C C64A G88A, no more than 0.026.
As for U17C A30U G66A C77A, the nonsense suppression was no more than 0.026.
For G73C C83A the value was no more than 0.026.
As for G59A C77G, the nonsense suppression was no more than 0.026.
Consider G19C A31G U57C G78C, for which the nonsense suppression was no more than 0.026.
G25C G61C: the nonsense suppression is no more than 0.026.
The figure for A13C G28U U57A G86C is no more than 0.026; for C11U A13C G25U C34G C75G A87G it is no more than 0.026; for A33U G69A G73A A87C it is no more than 0.026.
For G61C C77A the value was no more than 0.026.
The figure for C11U G15C G61U is no more than 0.026; for U16G C77G it is no more than 0.026.
For G10A G84A A89C, the nonsense suppression is no more than 0.026.
Regarding G19U G84A, the nonsense suppression is no more than 0.026.
For C1U G6C G10U U58C the value was no more than 0.026; for G66A G69C U76G, no more than 0.026; for G6A A30U G84C G88U, no more than 0.026.
In the case of A14C A24U, the nonsense suppression was no more than 0.026.
Consider U4A G15A U22G C34U A74G C83U G86A, for which the nonsense suppression was no more than 0.026.
For G6U U20A C83G the value was 0.186; for G10C U63A, no more than 0.026.
The figure for C34U A74G is no more than 0.026.
The figure for C11U G18U A62U is no more than 0.026; for U8G A60G it is no more than 0.026.
